# Laboratory results taken from PubChem BioAssay AID1508642 (National Center for Advancing Translational Sciences (NCATS), 2021).
# The campaign covered roughly 43,000 compounds. About 200 (0.47%) were called active. Roughly 12% stayed inconclusive and do not appear here. Calls come from the whole dose curve; as a rule, active = well fitted cell-killing curve with a large enough effect; inconclusive = small, poorly fitted or top-dose-only effect, or effect the other way; inactive = flat fitted curve, though single readings scatter. Some of the results follow.
# Experiment: Cell viability qHTS assay in S16 Pmp22-F2sN cells; note: nearly all actives have a fitted effect of over 65% in size
# Conditions: S16 Pmp22-F2sN Schwann cells viability, CellTiter-Glo, 24 h; series mostly up to 57.5 µM; activity change, negative = cytotoxicity: at the top concentration
# In short: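 S16 Pmp22-F2sN Schwann cells (500-1,000/well) in phenol-red-free DMEM with 10% FBS received 23 nL compound by pin tool for 24 h at 37 °C. Viability was then read as CellTiter-Glo luminescence after 15 min at room temperature.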
# % is set by controls: 0 for no effect and ±100 for the full control effect.
row,Structure (SMILES),"activity change, negative = cytotoxicity"
1,CCCCn1cc(S(=O)(=O)c2cc(C)ccc2C)c(=O)c2cc(F)c(N3CCC(C)CC3)cc21,inactive: -9.89%
2,CCOC(=O)c1c(C)[nH]c(C)c1S(=O)(=O)N1CCC(C(=O)Nc2ccc(OCC)cc2)CC1,inactive: -31.1%
3,CC(C)OCCCNc1ncnc2sc3c(c12)CCCC3,inactive: -9.95%
4,CCCC(=O)Nc1cc2nn(-c3ccccc3)nc2cc1C,inactive: 0.725%
5,CCc1ccccc1NC(=O)Nc1c(C)n(C)n(-c2ccccc2)c1=O,inactive: 0.13%
6,CCOC(=O)c1ccc(N2C(=O)c3[nH]nc(-c4ccc(C)cc4)c3C2c2cccs2)cc1 (stereo unspecified),inactive: -11.5%
7,CSc1ncc(C(=O)Nc2ccccc2C(F)(F)F)c(-c2ccccc2)n1,inactive: -1.62%
8,CCCc1nc2nc(C)c(NS(=O)(=O)c3ccc(CC(C)C)cc3)c(=O)n2[nH]1,inactive: 0.953%
9,CCCCN(CCCC)CCCNC(=O)Cn1cc2c(n1)-c1c(oc(C(=O)N3CCCC3)c1C)CC2,inactive: 1.73%
10,CCOC(=O)c1[nH]c2c(c1Cc1ccccc1OC)C(=O)CC(c1ccc(OC)cc1)C2 (stereo unspecified),inactive: -16.4%
11,CCc1ccc(-n2c(=O)c3c4c(sc3n(Cc3cc(=O)n5c(C)cccc5n3)c2=O)CCC4)cc1,inactive: 20.7%
12,Cc1ccc(CNC(=O)c2nn(-c3ccc(Cl)cc3)nc2CO)cc1,inactive: 28%
13,Cc1ccccc1CSc1nnc2[nH]c(=O)cc(-c3ccccc3)n12,inactive: 2.71%
14,CCOC(=O)c1ccccc1NC(=O)Cn1ncc2c1-c1ccccc1OC2,inactive: 16.2%
15,Cc1cc(C)cc(NC(=O)CSc2oc(-c3ccccc3)nc2S(=O)(=O)c2ccc(Cl)cc2)c1,inactive: -15.3%
16,Cc1ccc(NC(=O)Cn2nc(C(F)(F)F)c3c2CCCC3)cc1C,inactive: 20.3%
17,Cc1ccc(N2C(=O)c3n[nH]c(C)c3C2c2ccc(Cl)cc2)cc1 (stereo unspecified),inactive: 9.42%
18,Cc1ccc2c(c1)N(CC(=O)NCCc1ccccc1)C(=O)CO2,inactive: 2.07%
19,CCc1ccccc1NS(=O)(=O)c1ccc2nc(-c3ccccc3)[nH]c2c1,inactive: -14.2%
20,CC(C)OCCCNC(=O)C(=O)Nc1c2c(nn1-c1ccccc1)CS(=O)(=O)C2,inactive: -15.8%
21,CCC(C)NC(=O)c1c(C)oc2ncn(CC(C)C)c(=O)c12 (stereo unspecified),inactive: 9.01%
22,CCCCNC(=O)CSc1nc2cc3c(cc2c(=O)n1CCCC(=O)NCCc1ccc(OC)c(OC)c1)OCO3,inactive: 3.74%
23,Cc1cc(C(=O)N2CCN(c3ccccc3)CC2)c2c(C)nn(-c3cccc(F)c3)c2n1,inactive: 9.82%
24,COc1cc(NC(=O)C2CCN(C(=O)c3sc4nc[nH]c(=O)c4c3C)CC2)cc(OC)c1OC,inactive: 7.54%

row,Structure (SMILES),"activity change, negative = cytotoxicity"
1,O=C(Cn1c(=O)n(CCc2ccccc2)c(=O)c2cccnc21)Nc1ccc(F)cc1,inactive: -2.52%
2,CCCCNC(=O)C1CCC(Cn2c(=O)c3sccc3n(Cc3ccccc3)c2=O)CC1 (stereo unspecified),inactive: 17.9%
3,CCC(=O)N1CCc2cc(S(=O)(=O)NC(C(=O)NCCc3ccc(OC)c(OC)c3)C(C)C)ccc21 (stereo unspecified),inactive: -4.58%
4,Cc1cc(C)c(NC(=O)c2nc3ccccc3nc2N2CCCCC2)c(C)c1,inactive: 14.5%
5,Cc1ccc(-n2c(=O)c3c4c(sc3n(Cc3cc(=O)n5cc(Cl)ccc5n3)c2=O)CCC4)cc1C,inactive: 7.91%
6,CCOC(=O)c1ccccc1NC(=O)CN(c1cccc(C)c1C)S(=O)(=O)c1ccccc1,inactive: -3.85%
7,CCc1ccc(-c2nn(CC(=O)NC3CCCCC3)c3c2cnc2ccc(F)cc23)cc1,inactive: 11%
8,COc1ccc(CNC(=O)c2cc3c(=O)n(Cc4cccnc4)ccc3nc2C)cc1,inactive: 6.93%
9,COc1ccccc1CNC(=O)c1cc2c(=O)oc3ccc(C)cc3c2s1,inactive: 9.49%
10,COc1ccccc1CCNC(=O)Cc1ccc(NC(=O)N2CCSc3ncccc32)cc1,inactive: 0.903%
11,CCCNS(=O)(=O)c1cc(-c2nn3c(C)nnc3c3ccccc23)ccc1C,inactive: 15.5%
12,CC(=O)c1ccc(S(=O)(=O)N2CCn3cccc3C2c2ccccc2F)cc1 (stereo unspecified),inactive: -1.47%
13,Cc1cc(C)cc(NC(=O)Cc2csc(C)n2)c1,inactive: 2.16%
14,CCOc1ccccc1NC(=O)C1CCN(S(=O)(=O)c2ccc3[nH]c(=O)oc3c2)CC1,inactive: 5.95%
15,CCc1cccc(OCC(=O)Nc2ccc(S(=O)(=O)Nc3ncccn3)cc2)c1,inactive: 5.65%
16,CC(C)(C)c1ccc(OCc2nc3ccccc3n2CCOc2ccccc2)cc1,inactive: -15.1%
17,Cc1cccc(C)c1OCc1nc2c3cnn(-c4ccccc4F)c3ncn2n1,inactive: 4.06%
18,O=C(c1ccccc1F)N1c2ncnn2C2(CCCCC2)[C@@H]2CCCC[C@@H]21,inactive: 7.79%
19,Cc1cccc(Nc2nc(N)nc(N)c2S(=O)(=O)c2ccccc2)c1,inactive: 20%
20,CCSc1ncc(Cl)c(C(=O)Nc2nnc(CC)s2)n1,inactive: -2.24%
21,CCOc1ccc2oc(=O)cc(CN3CCN(C(=O)c4ccc(OC)c(OC)c4)CC3)c2c1,inactive: -2.17%
22,CCC(C(=O)NCCc1ccccc1)n1nc(C)c2sc3ccccc3c2c1=O (stereo unspecified),inactive: -11.6%
23,COc1ccc(C2=C(C)C(N3CCC(C(=O)Nc4ccccc4F)CC3)=NS2(=O)=O)cc1,inactive: -9.66%
24,Cc1c(C)n(Cc2ccc(F)cc2)c2ccc(C(=O)N3CCN(c4ccc(F)cc4)CC3)cc12,inactive: -7.99%

row,Structure (SMILES),"activity change, negative = cytotoxicity"
1,Cc1cccc(CCNC(=O)C2CCC(CNS(=O)(=O)c3ccccc3)CC2)c1 (stereo unspecified),inactive: -0.586%
2,CCCC(CCC)C(=O)Nc1cccc(-c2nc3cccnc3s2)c1C,inactive: -11.1%
3,COc1cccc(-c2nc(CS(=O)(=O)CC(=O)NCCc3ccc(OC)cc3OC)c(C)o2)c1,inactive: 2.97%
4,COCCCNC(=O)c1ccc(Cn2c(=O)c3ccccc3n(CC(=O)Nc3c(C)cccc3C)c2=O)cc1,inactive: 0.232%
5,CCOc1cc(C(=O)Nc2ccc3nc(Nc4cccc(Cl)c4)cc(C)c3c2)cc(OCC)c1OCC,inactive: 11.6%
6,Cc1nnc(SCc2cc(=O)n3cccc(C)c3n2)s1,inactive: -3.6%
7,Cc1nn2c(C)c(C(=O)N3CCN(c4ccccc4F)CC3)cnc2c1-c1ccc(F)cc1,inactive: -0.729%
8,O=C(Nc1ccc(F)c(Cl)c1)C1CCN(C(=O)c2ccc(F)cc2)CC1,inactive: -8.08%
9,N#Cc1ccccc1Cn1c(=O)n(CCCC(=O)NCc2ccccc2Cl)c(=O)c2ccccc21,inactive: 1%
10,COc1ccc(Cl)cc1NC(=O)CSC1=Nc2ccccc2C2=NC(CCC(=O)NCc3ccc(F)cc3)C(=O)N12 (stereo unspecified),inactive: -22.8%
11,CCOc1ccc(N2CC(c3nc4ccccc4n3CCCOc3ccccc3OC)CC2=O)cc1 (stereo unspecified),inactive: -11.1%
12,CCc1nnc(SCc2cccc(F)c2)c2cc3sc(C)cc3n12,inactive: -4.65%
13,CCS(=O)(=O)N1CC(=O)N(c2ccc(Cl)cc2C)C(C)(C(=O)NC2CCCCCC2)C1 (stereo unspecified),inactive: -1.3%
14,COc1ccc(NC(=O)C2CCN(S(=O)(=O)c3ccc4[nH]c(=O)ccc4c3)CC2)cc1Cl,inactive: -0.0312%
15,COc1cc(OC)c(NC(=O)C(c2ccccc2)N2Cc3ccccc3C2=O)cc1Cl (stereo unspecified),inactive: 2.83%
16,COc1ccc(N2CC(NC(=O)/C=C\c3ccc4c(c3)OCO4)CC2=O)cc1 (stereo unspecified),inactive: 0.0133%
17,CCOC(=O)c1scc(-c2ccccc2)c1S(=O)(=O)Nc1ccc(N(C)C)cc1,inactive: -1.08%
18,CC(C)CN(CCCNC(=O)c1cc(-c2ccc(Br)s2)nc2ccccc12)CC(C)C,inactive: -13.3%
19,O=C(Nc1nonc1-c1ccc(Cl)cc1)c1ccccc1F,inactive: -5.9%
20,COc1ccc(CCNC(=O)C2(c3cccs3)CCOCC2)cc1,inactive: 3.43%
21,Cc1nc2ccccc2n1CCc1nc2c3ccccc3nc(SCC(=O)Nc3cccc(C(F)(F)F)c3)n2n1,inactive: -8.47%
22,O=C(CCC1N=C2c3ccccc3N=C(SCc3ccccc3Cl)N2C1=O)NCCc1ccccc1 (stereo unspecified),inactive: 12.6%
23,Cn1c(=O)n(-c2ccc3c(c2)OCO3)c2nc(-c3ccc(Cl)cc3)nc(C(N)=O)c21,inactive: 22.6%
24,Cc1ccccc1NC(=O)CSc1nc(-c2ccc(F)cc2)nc2c1Cc1ccccc1O2,inactive: 7.09%

row,Structure (SMILES),"activity change, negative = cytotoxicity"
1,COc1ccc(Br)cc1Cn1nnc(C(=O)Nc2ccc(C)cc2C)c1N,inactive: -6.26%
2,Cc1cc(C)nc(NS(=O)(=O)c2ccc(NC(=O)c3ccccc3O)cc2)n1,inactive: -16.9%
3,COc1ccc2c(Sc3ccccc3)c(C(=O)NCC(C)c3ccccc3)[nH]c2c1 (stereo unspecified),inactive: -8.13%
4,Cc1cc(C)cc(-n2c(SCC(=O)N3CCCC3)nc3c([nH]c4ccccc43)c2=O)c1,inactive: -2.9%
5,O=C(Cn1nc(-c2ccccc2)c2cnc3ccccc3c21)Nc1ccccc1,inactive: 14.2%
6,Cc1ccc(C)c(NC(=O)CN2C(=O)C3(SCC(=O)N3c3ccc(C)c(C)c3)c3ccccc32)c1 (stereo unspecified),inactive: -8.91%
7,Cc1ccc(Cn2nnc3sc4c(c3c2=O)CCC(C)C4)cc1 (stereo unspecified),inactive: -2.38%
8,CCC(=O)N1CCc2cc(CNS(=O)(=O)c3c(C)cc(C)cc3C)ccc21,inactive: -4.73%
9,CC1=C(C(=O)Nc2cccnc2)C(c2ccccc2)n2nc(SCc3ccccc3)nc2N1 (stereo unspecified),inactive: 19.9%
10,COC(=O)c1ccccc1NC(=O)c1cc(-c2ccc(Cl)cc2)on1,inactive: 15.7%
11,CCCCOc1ccc(C(=O)Nc2ccc(S(=O)(=O)Nc3nc(C)cc(C)n3)cc2)cc1,inactive: -1.36%
12,CC1CCc2nc3ncn(Cc4ccc(Cl)cc4)c(=O)c3cc2C1 (stereo unspecified),inactive: 1.11%
13,Cc1nnc(NCc2ccc(Cl)cc2)c2c1nnn2Cc1ccc(F)cc1,inactive: -0.503%
14,Cc1ccc2nc(-c3ccc(Cl)c(NC(=O)c4ccc5c(c4)OCCO5)c3)oc2c1,inactive: 3.38%
15,CCOc1ccccc1NC(=O)CSc1ccc2nnc(CCNS(=O)(=O)c3ccccc3)n2n1,inactive: -0.653%
16,Brc1ccc(-c2noc(-c3ccccc3)n2)o1,inactive: 3.36%
17,COCCNC(=O)CCCn1c(=O)[nH]c2ccsc2c1=O,inactive: 10.4%
18,Cc1ccc(Nc2ncnc3c2cnn3-c2ccc(C)cc2)cc1,inactive: 0.598%
19,CC(=O)Nc1ccc(NS(=O)(=O)c2cc(Br)cc3c2N(C(=O)C2CC2)CC3)cc1,inactive: 3.86%
20,COc1ccc(OCC(=O)N(Cc2cccc(OC)c2)C2CCS(=O)(=O)C2)cc1 (stereo unspecified),inactive: 0.429%
21,CCOc1ccc(NS(=O)(=O)c2ccc3[nH]cc(C(=O)NCCOC)c(=O)c3c2)cc1,inactive: 9.74%
22,CN(C)CCNC(=O)CCCn1c(=O)c2cccn2c2ccccc21,inactive: 14%
23,Cc1ccc(Cl)cc1N(C)C(=O)c1noc2c1CCCCC2,inactive: 1.93%
24,COc1ccccc1NC(=O)C1=C(C)Nc2nc(SCC(=O)c3ccc(C)cc3)nn2C1c1ccccc1C (stereo unspecified),inactive: -4.36%
